Measured values published in the supplement of paper PMC7335073.
Whole data set: some 4,100 sequences, median “relative CpG methylation activity (normalised to average over all NNNCGNNN flanks)” near 0.94, cut for the highest 2% near 1.9. The list shows a part of the results.

The sequences below were run against DNMT3B catalytic domain (mouse) (UniProt O88509) (assay: relative CpG methylation activity (normalised to average over all NNNCGNNN flanks) (relative (1 = mean)); higher = more methylation of the central CpG). Conditions: system: in vitro, murine catalytic domain; CpG state: hemimethylated substrate pool; residues: 558-859.
Method in brief: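 Each experiment was done in two independent repeats, using pooled dsDNA substrates with a central CpG flanked by 10 random nucleotides, methylated for 60 min at 37 °C by the murine DNMT3A or DNMT3B catalytic domain with 0.8 mM S-adenosyl-L-methionine in HEPES pH 7.5 buffer. After bisulfite conversion and PCR, the DNA was read by Illumina sequencing. Methylation was averaged per context, defined by three bases on each side of the CpG. Relative methylation activity is each context's average methylation over the mean of all contexts.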

UniProt O88509, sequence (O88509 558-859): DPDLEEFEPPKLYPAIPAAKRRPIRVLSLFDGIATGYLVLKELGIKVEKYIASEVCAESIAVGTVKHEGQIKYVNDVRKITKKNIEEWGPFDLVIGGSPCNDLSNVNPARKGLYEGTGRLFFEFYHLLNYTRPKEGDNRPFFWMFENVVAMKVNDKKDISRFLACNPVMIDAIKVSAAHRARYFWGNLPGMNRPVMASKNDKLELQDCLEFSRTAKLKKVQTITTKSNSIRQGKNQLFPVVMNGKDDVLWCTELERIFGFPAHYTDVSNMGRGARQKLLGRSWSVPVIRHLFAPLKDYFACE

| Sequence | relative CpG methylation activity |
| --- | --- |
| GGTCGACA | 0.906 |
| CGCCGCGT | 0.252 |
| GTCCGATG | 1.16 |
| GCGCGATG | 0.905 |
| TAGCGGGT | 0.833 |
| CTACGTTT | 1.59 |
| ATTCGGCC | 2.04 |
| TTCCGGGA | 1.43 |
| CAGCGAAC | 0.981 |
| CTCCGAGC | 2.06 |
| GTCCGGGC | 1.53 |
| CATCGGGA | 1.68 |
| GGGCGTTA | 0.156 |
| GTCCGACA | 1.26 |
| TTCCGAAC | 1.89 |
| TTGCGCTA | 0.677 |
| TCGCGGAA | 0.635 |
| GTGCGTCT | 0.797 |
| ATACGGAT | 1.46 |
| ATCCGGCG | 1.82 |
| GTCCGTGC | 0.758 |
| CGCCGCCT | 0.572 |
| TGGCGCAG | 0.179 |
| CATCGCCG | 1.12 |
| TTGCGCAC | 0.917 |

| Sequence | relative CpG methylation activity |
| --- | --- |
| GGCCGATA | 1.01 |
| CTTCGGGT | 1.33 |
| AGTCGCCT | 1.07 |
| TGCCGCTC | 0.685 |
| ATCCGCGT | 0.671 |
| GTACGCTA | 1.23 |
| CTGCGAAG | 1.12 |
| AGCCGCTT | 0.239 |
| GAACGGAG | 0.885 |
| AGCCGAGA | 1.25 |
| AGACGCAA | 0.525 |
| GTTCGGTT | 1.1 |
| GAGCGTGC | 0.641 |
| CACCGAAT | 1.09 |
| AAACGGCG | 1.68 |
| TTACGACT | 1.72 |
| TTGCGTCA | 0.789 |
| CCACGAGG | 1.49 |
| TAGCGTGA | 0.345 |
| GTCCGCGG | 0.8 |
| GACCGCCT | 0.517 |
| GTTCGGCC | 1.81 |
| CGACGCCG | 1.05 |
| CCCCGTGG | 0.244 |
| GTGCGGTT | 0.943 |

| Sequence | relative CpG methylation activity |
| --- | --- |
| TCACGGGC | 1.62 |
| CTACGGGC | 1.75 |
| AGTCGCTC | 1.06 |
| GATCGTTG | 0.455 |
| ACGCGGGA | 1.09 |
| GTTCGGTA | 1.17 |
| TCGCGCAC | 0.399 |
| GACCGAGA | 1.25 |
| AAGCGTCG | 0.521 |
| GTGCGATC | 1.16 |
| GGCCGGAT | 0.26 |
| ATACGTCC | 1.54 |
| GCCCGCAG | 0.312 |
| TAGCGGTT | 1.07 |
| TGGCGGGC | 0.931 |
| GCTCGATC | 1.42 |
| GGTCGACC | 1.11 |
| TGTCGAAT | 1.03 |
| ATGCGTCG | 0.764 |
| TGGCGGGG | 0.595 |
| TGCCGCGA | 0.26 |
| TAGCGGTG | 0.473 |
| CCACGATG | 1.42 |
| GTGCGGTA | 1.2 |
| CTGCGCCA | 1.17 |

| Sequence | relative CpG methylation activity |
| --- | --- |
| GGACGTAA | 0.527 |
| CATCGCTA | 0.882 |
| GCGCGCTT | 0.847 |
| GCTCGTCA | 0.561 |
| AGGCGCTT | 0.466 |
| ATCCGCAG | 0.458 |
| GCACGTAA | 0.823 |
| TAGCGCGG | 0.469 |
| TAACGTGT | 0.627 |
| CTGCGAAC | 1.27 |
| ACGCGCGC | 0.797 |
| GCTCGTAC | 0.896 |
| GGGCGATG | 0.887 |
| CGTCGTCA | 0.438 |
| ATCCGAAT | 1.3 |
| GCACGAGG | 1.46 |
| ACGCGATT | 1.09 |
| TGGCGGTC | 0.896 |
| CGTCGTAG | 0.204 |
| TGACGCGC | 1.12 |
| CCCCGCAC | 0.866 |
| AAACGCCT | 1.49 |
| GGGCGAAG | 0.305 |
| CCACGTCA | 1.24 |
| GATCGTGA | 0.133 |

| Sequence | relative CpG methylation activity |
| --- | --- |
| GACCGTGG | 0.126 |
| GCGCGAGA | 1.07 |
| CGACGATC | 1.6 |
| CGGCGCAA | 0.2 |
| GAGCGAAG | 0.643 |
| ACCCGGTT | 1.29 |
| GGGCGACA | 0.726 |
| GCCCGTAG | 0.248 |
| GATCGGGC | 1.45 |
| CCACGAGC | 1.84 |
| TCGCGGCG | 1.53 |
| GGTCGCAG | 0.192 |
| ATTCGAGG | 1.29 |
| AGCCGTCA | 0.3 |
| GCGCGGGC | 1.12 |
| GAGCGTAG | 0.699 |
| TTTCGGAC | 1.24 |
| TGTCGTTT | 0.256 |
| TGGCGACT | 0.685 |
| CACCGGGC | 1.16 |
| AGCCGGAG | 0.191 |
| ATCCGACC | 1.51 |
| ACTCGCGT | 0.486 |
| AAACGTGC | 0.89 |
| TACCGAAC | 1.23 |

| Sequence | relative CpG methylation activity |
| --- | --- |
| TAGCGCTT | 0.668 |
| TCGCGCGA | 0.389 |
| TAACGTTA | 0.816 |
| ACACGCGT | 0.999 |
| TCACGTAT | 1.1 |
| CGGCGCTT | 0.53 |
| ATCCGAGA | 1.4 |
| CAACGTTT | 0.764 |
| CTGCGATT | 1.43 |
| CGACGGTC | 1.18 |
| TGTCGCGC | 0.698 |
| GTACGAGG | 1.56 |
| CAACGCGG | 1.11 |
| AGGCGAGT | 1.07 |
| ATACGTAC | 1.5 |
| GCTCGGCT | 1.85 |
| CAACGTAA | 0.917 |
| TTTCGTGC | 0.994 |
| CGACGTTT | 0.532 |
| TCGCGTTA | 0.51 |
| GGGCGTAA | 0.252 |
| ACTCGACT | 1.23 |
| TCGCGACA | 1.05 |
| GTTCGCTA | 0.524 |
| GTTCGTTC | 0.845 |

| Sequence | relative CpG methylation activity |
| --- | --- |
| CGACGGTG | 1.06 |
| GTTCGTTG | 0.375 |
| TGTCGAAC | 1.46 |
| TTGCGCTT | 1.04 |
| TGGCGAAC | 0.647 |
| CTACGATA | 1.97 |
| AGTCGGAA | 0.907 |
| TAGCGTAC | 0.727 |
| TCGCGCGC | 0.708 |
| CTGCGGTT | 1.07 |
| TCCCGTAC | 1.11 |
| ACGCGCCA | 0.83 |
| CGTCGTGT | 0.248 |
| TCGCGAGA | 1.2 |
| GTTCGGAG | 0.641 |
| ATGCGTTC | 1.12 |
| GAACGGCC | 1.81 |
| CGCCGCAA | 0.297 |
| CAGCGGCG | 1.46 |
| CAACGAGT | 1.47 |
| ATACGGGT | 1.73 |
| GTCCGACG | 1.11 |
| TCCCGGCG | 1.87 |
| ACACGCAT | 0.84 |
| CATCGTTG | 0.266 |

| Sequence | relative CpG methylation activity |
| --- | --- |
| ATGCGCTG | 0.604 |
| CTACGCGG | 1.44 |
| ACTCGGTG | 1.04 |
| ACACGGAG | 0.823 |
| ATTCGGAA | 0.809 |
| GGGCGCTG | 0.265 |
| CGCCGTGT | 0.205 |
| ATTCGGGG | 1.58 |
| TAACGCAC | 1.19 |
| CCACGCAG | 0.819 |
| ATGCGATC | 1.48 |
| TCGCGGCA | 1.5 |
| ACACGACT | 1.55 |
| CATCGCAA | 0.511 |
| TCACGGGA | 1.63 |
| AAGCGAGC | 1.16 |
| TTGCGGCC | 1.43 |
| CTACGCGA | 1.17 |
| GGACGACG | 1.01 |
| TTCCGTTA | 0.945 |
| AATCGTAA | 0.31 |
| CCGCGACC | 0.94 |
| CGGCGAAT | 0.68 |
| GGACGACC | 0.944 |
| AAACGTTC | 1.12 |

| Sequence | relative CpG methylation activity |
| --- | --- |
| ATGCGAGG | 1.27 |
| ATACGCCT | 1.5 |
| ATGCGATA | 1.4 |
| CACCGCCT | 0.622 |
| CTGCGTGA | 0.833 |
| GGGCGGCG | 1.15 |
| ATACGTGT | 0.879 |
| CACCGATT | 1.39 |
| GTACGAGA | 1.79 |
| CCTCGAGT | 1.5 |
| TAACGGGC | 1.53 |
| TCTCGGTG | 0.921 |
| GGACGATC | 1.74 |
| TTTCGTTA | 0.586 |
| CGCCGAAT | 0.81 |
| GTTCGTAT | 0.477 |
| TCACGTGA | 0.545 |
| AGGCGAGA | 0.85 |
| CCACGTCG | 1.1 |
